In PMC7819943, “Rice protein-binding microarrays: a tool to detect cis-acting elements near promoter regions in rice” one finds binding signal data, which are given here for 42 sequences.

The other results are listed elsewhere or left out.

For this test, the target named is T1, OsWOX13 (Oryza sativa, UniProt Q5QMM3 1-267).
T1 sequence: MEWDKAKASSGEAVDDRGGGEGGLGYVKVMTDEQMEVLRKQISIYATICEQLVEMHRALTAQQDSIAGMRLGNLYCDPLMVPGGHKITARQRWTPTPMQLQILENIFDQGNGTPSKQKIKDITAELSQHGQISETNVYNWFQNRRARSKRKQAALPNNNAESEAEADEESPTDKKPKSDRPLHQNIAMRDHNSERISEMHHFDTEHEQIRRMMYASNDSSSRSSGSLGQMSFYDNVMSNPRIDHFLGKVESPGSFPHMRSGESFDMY
As to the kind of experiment: protein-binding microarray (RPBM); PBS, 2% BSA, 51.3 ng/ul salmon testes DNA, 50 uM zinc acetate, 200 nM TF, 25 C, 1 h; high values mean tight binding. The settings on record: protein: recombinant; tags: N-terminal polyhistidine and DsRed monomer fusion (pET32a); label: CyDye5-dUTP incorporated in the synthesized complementary strand; 3' TTTTT single-stranded linker to array surface; dsDNA, one strand shown. The essentials:
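Transcription factors, each fused N-terminally to a polyhistidine tag and DsRed, were expressed in E. coli BL21-CodonPlus and purified on Ni–NTA. A custom Agilent array was made double-stranded by primer extension with Cy5-dUTP and blocked with 2% BSA. It was incubated with 200 nM protein in PBS, 2% BSA, salmon testes DNA and 50 µM zinc acetate at 25 °C for 1 h, then washed. The binding signal is per-feature fluorescence intensity (arbitrary units) read on an Axon 4000B scanner.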
As for “CCATCTAATTTTGTCCCATCCCATGCAGCGGTTGAACGGGCGGAGTCACCTAGTGCAG”, the binding signal was 7690 fluorescence intensity (a.u.).

Consider “ATTGATTGGCTTATTTGGCTTATTTAACTTGATAAGGATTCGGAGTCACCTAGTGCAG”, for which the binding signal is 51700 fluorescence intensity (a.u.). For “ATGTGATTAATTAAAGTTTTAATTATTACAAACTTCAAAACGGAGTCACCTAGTGCAG”, the binding signal is 27700 fluorescence intensity (a.u.). Next, “AACGTGGAAGTGGATTGGGTGGTGGGTGGGGATCCACCTACGGAGTCACCTAGTGCAG”: 6280 fluorescence intensity (a.u.); “TTATAGACGTAATGGATTACCACACAGGTCCTCAAGCCACCGGAGTCACCTAGTGCAG”: 4190 fluorescence intensity (a.u.). Regarding “TATCCTTTGACTGTTTAATTTTGACTACAATTCCAAGTTGCGGAGTCACCTAGTGCAG”, the binding signal is 10700 fluorescence intensity (a.u.).

Consider “AGCACCAATCAGAGTGTGATCCCAAGAAAGCAGAGGAGCACGGAGTCACCTAGTGCAG”, for which the binding signal was 4510 fluorescence intensity (a.u.).

In the case of “CATTGATAATGTATAAATAATTTTGGTTACAACATATTTACGGAGTCACCTAGTGCAG”, the binding signal is 6880 fluorescence intensity (a.u.).

Regarding “CCCACGCATTACATGATAAATTAGAGCTATGAAAATCAAGCGGAGTCACCTAGTGCAG”, the binding signal is 3640 fluorescence intensity (a.u.). Consider “GATTCAGATTGAATTCACATCACCAATAATAATAATAATACGGAGTCACCTAGTGCAG”, for which the binding signal is 3260 fluorescence intensity (a.u.).

As to “TACAAATTGGTTGAAAATGGAGGGTTCAAGCCAATGCATCCGGAGTCACCTAGTGCAG”, the binding signal is 23600 fluorescence intensity (a.u.).

Consider “ATAATTAGCACTGACAGTAATTACATACTCAATTCAATCACGGAGTCACCTAGTGCAG”, for which the binding signal is 30500 fluorescence intensity (a.u.). On to “GTTCTCAATACAAATTGCAATTTCATGACATATATATAAACGGAGTCACCTAGTGCAG”, for which the binding signal is 4410 fluorescence intensity (a.u.). As to “TCATGCAATTTGTGCCAATCATAAAGGACGTACGTAGTACCGGAGTCACCTAGTGCAG”, the binding signal is 25500 fluorescence intensity (a.u.). With “GGCAAATTAACCAAGTTAGCTGCAGCTGCAGCTGGGATGGCGGAGTCACCTAGTGCAG”, the binding signal was 9780 fluorescence intensity (a.u.).

In the case of “GTCAAATTTGACATTGTGCAGTGGCTCGCCAAAGTAAACGCGGAGTCACCTAGTGCAG”, the binding signal is 5010 fluorescence intensity (a.u.). Next, “CCTGATGTGCTTGTAGGGCGGTGTTCTTGTGTGTGTGTGTCGGAGTCACCTAGTGCAG”: 3490 fluorescence intensity (a.u.). With “AGGCCTTAATTTATTATTCGTTTGAGATAATGGGCCGGGCCGGAGTCACCTAGTGCAG”, the binding signal is 13400 fluorescence intensity (a.u.).

Take “ATTACACCAACAAATTGACTGAAATCAAATTCATTATCGGCGGAGTCACCTAGTGCAG”: the binding signal is 23200 fluorescence intensity (a.u.). To “TGCATACCCTCAATCATTTCCTTGTTTTATCTTCTTTCAGCGGAGTCACCTAGTGCAG” belongs 4070 fluorescence intensity (a.u.); to “ATGTAATTTCTTTATGTGCTAGATTAAGAACACTAATTCCCGGAGTCACCTAGTGCAG”, 10500 fluorescence intensity (a.u.); to “GCACAAATTACCAAGATTGGGCGCTGGTAATGCGGGTGAACGGAGTCACCTAGTGCAG”, 21500 fluorescence intensity (a.u.). To “CAAGTAAACATCAACTCGGCGTGATTGTTCTAGGGTGACCCGGAGTCACCTAGTGCAG” belongs 5190 fluorescence intensity (a.u.). Turning to “ATGATCATTTACTGATTGTGAACTGTAGTCTCTGTGGTCTCGGAGTCACCTAGTGCAG”, the binding signal was 18700 fluorescence intensity (a.u.). Next, “TTCTGATTTCTGCCATTGATTATGATTTCAGCATGTTTTCCGGAGTCACCTAGTGCAG”: 11800 fluorescence intensity (a.u.).

As to “GTAATTTATATTGAAATGCAATTACTTCCTCCGTTTCACCCGGAGTCACCTAGTGCAG”, the binding signal is 21800 fluorescence intensity (a.u.). “ATTAATTATCAGTGAGCACAAGCCTGGCATGTAAATCATGCGGAGTCACCTAGTGCAG”: the binding signal is 24800 fluorescence intensity (a.u.). Take “TCGAAGCAAAATTGAATCGATACAATTTAACGCCCATTTTCGGAGTCACCTAGTGCAG”: the binding signal was 3260 fluorescence intensity (a.u.). Turning to “TATCTTTGACAAACTTTATTCGTTTCCGAAAATTTGGCAGCGGAGTCACCTAGTGCAG”, the binding signal was 3710 fluorescence intensity (a.u.). For “CATAGCCAATTATGTGTCATGTTTTGTGATTTGGTACATGCGGAGTCACCTAGTGCAG”, the binding signal was 10000 fluorescence intensity (a.u.). “CTCCACCTGATTGGGGCGCACCCCACATGGGCCCCACTTGCGGAGTCACCTAGTGCAG”: the binding signal is 14500 fluorescence intensity (a.u.). In the case of “GACGAGACTGAGTTGATTAATTGATTAACATACAAGCTGCCGGAGTCACCTAGTGCAG”, the binding signal was 51000 fluorescence intensity (a.u.). Regarding “CAACTAATTATGATTGAGAGGCATGATTCCCCTTTCTTATCGGAGTCACCTAGTGCAG”, the binding signal is 33000 fluorescence intensity (a.u.). For the sequence “GTTTAGTTTAAATTCAAATTTAATGTTTCAATTAATCTATCGGAGTCACCTAGTGCAG”, the binding signal is 4750 fluorescence intensity (a.u.). To “TTTGATGGGATGTATGCTGTGTAGGACACATACTGTGTATCGGAGTCACCTAGTGCAG” belongs 7790 fluorescence intensity (a.u.); to “TAGATAGATTTAGTTTTGATAATGGATAGAGATATTGCCCCGGAGTCACCTAGTGCAG”, 11600 fluorescence intensity (a.u.); to “CATAATTAGCGGTTGATTACTGTAGCATCACTGTAACAAACGGAGTCACCTAGTGCAG”, 29600 fluorescence intensity (a.u.). Take “ACGAGGAAGCTAATTAACCTGACGCCACCACCTCTCTTTCCGGAGTCACCTAGTGCAG”: the binding signal is 3480 fluorescence intensity (a.u.). With “TATAGTTACTAATCACAAACTGAATGGTCTGAATGACAATCGGAGTCACCTAGTGCAG”, the binding signal is 10100 fluorescence intensity (a.u.).

Take “TATATTTGACTGGATGGAGTATCTTGTTTCAAAGAAATCGCGGAGTCACCTAGTGCAG”: the binding signal is 10100 fluorescence intensity (a.u.). Turning to “TTCCGATTATTATTTGTATTTATTAATTTAGGATTTCTCTCGGAGTCACCTAGTGCAG”, the binding signal was 8170 fluorescence intensity (a.u.). Next, “CTTAATTAAGTTTATGTGATAACGAATCATTCCGTTTTAACGGAGTCACCTAGTGCAG”: 15500 fluorescence intensity (a.u.).
